# Data from PubChem BioAssay AID1671194 (National Center for Advancing Translational Sciences (NCATS), 2021).
# Screen size: about 140,000 compounds; about 240 (0.17%) were called active. Inconclusive results, whose numbers are uncertain, are shown with a selection of clear calls. Calls follow the shape of the dose curve; as a rule, active = well fitted inhibition curve with a large enough effect; inconclusive = small, poorly fitted or top-dose-only effect; inactive = no such curve, though single readings can be large or run the other way. A potency beside an inconclusive call is a rough fit, not a confirmed value.
# Assay: Primary qHTS assay for inhibitors of alpha-synuclein gene (SNCA) expression; also: nearly all actives have a fitted effect of over 45% in size
# Conditions: HEK-293 SNCA-luciferase knock-in, luminescence, 24 h; series mostly up to 57.2 µM
# Potency is read from the fitted curve at half-maximal effect; tags tell the direction and shape of the fitted curve.
row,Structure (SMILES),Potency
1,CCOc1ccc(C(=O)NC2CCN(c3cc(-c4ccc(OC)cc4)[nH]n3)CC2)cc1OCC,"inconclusive: 8.91 µM [inhibitor, partial curve, poor fit]"
2,CCCN1CCC(N2CCC(C(=O)Nc3cccc(-c4cccc(F)c4)c3)CC2)CC1,inactive
3,Cc1nc(-c2ccncc2)ncc1C(C)NC(=O)C1=NN(C)C(=O)CC1 (configuration not stated),"inconclusive: 3.98 µM [inhibitor, single point]"
4,Cc1cc(C)cc(NC(=O)Cc2csc(COc3cccc(C)c3)n2)c1,"inconclusive: 8.91 µM [inhibitor, partial curve, poor fit]"
5,CC(=O)N1CCC([C@@H]2CN(Cc3cccc(Cl)c3)C[C@H]2CO)CC1,"inconclusive: 31.6 µM [inhibitor, single point]"
6,Cc1nn(C)c(C)c1S(=O)(=O)N(CC(=O)NCCc1ccc(Cl)cc1)c1ccc(C(C)C)cc1,"inconclusive: 7.08 µM [inhibitor, single point]"
7,CCCCOc1ccc(C2=NC(c3cccs3)=Nc3ccc(OC)cc3N2)cc1,"inconclusive: 15.8 µM [inhibitor, single point]"
8,CC1(C(=O)N2CCN(c3ccccn3)CC2)CCc2cnc(NCc3ccccc3)nc21 (configuration not stated),"inconclusive: 17.8 µM [inhibitor, partial curve, poor fit]"
9,COc1ccc(OC)c(CNS(=O)(=O)c2ccc3c(c2)oc(=O)n3C)c1,"inconclusive: 2.82 µM [inhibitor, single point]"
10,COc1ccc(S(=O)(=O)N2CCC(c3noc(C4CC4)n3)C2)cc1 (configuration not stated),inactive
11,O=C(C1CC1)N1CCCC(C(=O)N2CCCC2c2nc3ccncc3[nH]2)C1 (configuration not stated),inactive
12,COc1cc(NC(=O)Cn2c(-c3ccc(F)cc3)nc(C)c(CCO)c2=O)cc(OC)c1OC,inactive
13,CC[C@H]1CN(C(=O)Nc2cccc(C(F)(F)F)c2)CC[C@H]1CC(=O)NCc1ccc(F)cc1,"inconclusive: 39.8 µM [inhibitor, partial curve, poor fit]"
14,CCN(CC)c1ccc(C(=O)NCc2nnc3cc(-c4nc(C(C)C)no4)ccn23)cc1,inactive
15,COc1ccc(C2Cn3cnc(C(=O)N4CCC(C(=O)NCc5ccccn5)CC4)c3CO2)cc1 (configuration not stated),inactive
16,CCOc1ccc(CCNC(=O)c2ccc(-n3c(C)cc4c3CCCC4)cc2)cc1OCC,"inconclusive: 17.8 µM [inhibitor, single point]"
17,CCOc1cc(=O)n2c(c1C(=O)Nc1cc(C)ccc1OC)CCCC2,"inconclusive: 8.91 µM [inhibitor, single point]"
18,CC(C)(C)CC(=O)Nc1cnc(-c2ccc(Cl)cc2)nc1,"inconclusive: 11.2 µM [inhibitor, partial curve, poor fit]"
19,Cc1cc(=O)n(CC(=O)Nc2ccc(N(C)C)cc2)c(-c2ccc(F)cc2)n1,"inconclusive: 8.91 µM [inhibitor, single point]"
20,CN(CCCN1c2ccccc2CCc2ccccc21)C(=O)C1CNCCO1 (configuration not stated),inactive
21,COCC(=O)N1CCc2c(sc3ncnc(N4CCN(C)CC4)c23)C1,inactive

row,Structure (SMILES),Potency
1,COCC1CN(C(=O)CCc2c(C)nn(C)c2C)CC12CCNCC2 (configuration not stated),"inconclusive: 4.47 µM [inhibitor, full curve, poor fit]"
2,O=C(c1ccc(Cl)cc1)N1CCC2(CC1)C(=O)Nc1ccccc12,inactive
3,COc1ccc(C(=O)N2CCC(Oc3ccc(C(=O)N4CCOCC4)cn3)CC2)cc1,"inconclusive: 7.08 µM [inhibitor, single point]"
4,COc1ccc(-n2c(=O)c3c4c(sc3n(Cc3ccc(F)cc3)c2=O)CN(C(C)=O)CC4)c(OC)c1,"inconclusive: 39.8 µM [inhibitor, partial curve, poor fit]"
5,Cc1n[nH]c(C)c1CNC(=O)CCC1CCCN(S(=O)(=O)c2ccccc2F)C1 (configuration not stated),"inconclusive: 10 µM [inhibitor, partial curve, poor fit]"
6,COc1cccc(-c2cc(C3CCN(C(=O)Nc4ccccc4C(F)(F)F)CC3)[nH]n2)c1,"inconclusive: 39.8 µM [inhibitor, single point]"
7,Cc1nc(N2CCN(C(=O)c3ccccc3)CC2)cc(C(F)(F)F)n1,"inconclusive: 17.8 µM [inhibitor, partial curve, poor fit]"
8,Cc1ccc(-c2ncc3c(n2)OCCN(c2ccccc2)C3=O)cc1F,"inconclusive: 17.8 µM [inhibitor, partial curve, poor fit]"
9,Cc1ccc(CN2c3ccccc3-c3nc(SCC(=O)NCc4ccccc4)ncc3S2(=O)=O)cc1,"inconclusive: 3.98 µM [inhibitor, partial curve, poor fit]"
10,CNC(=O)c1cc(-c2cnn(C)c2C)cc2c1OCCN2Cc1cccnc1,inactive
11,CCn1cc(S(=O)(=O)N2CCC3(CC2)N(CC2CC2)C(=O)CS3=O)cn1 (configuration not stated),"inconclusive: 28.2 µM [inhibitor, single point]"
12,CNC(=O)N1CCC(C2CCN(Cc3ccc(F)c(OC)c3)C2)CC1 (configuration not stated),"inconclusive: 35.5 µM [inhibitor, partial curve, poor fit]"
13,Cc1ccc(N(CC(=O)Nc2ccc(F)cc2F)S(=O)(=O)c2cccs2)cc1,"inconclusive: 14.1 µM [inhibitor, partial curve, poor fit]"
14,CCOCC1(C)COc2ccc(C(=O)N(C)Cc3ccccc3)cc2N1 (configuration not stated),"inconclusive: 8.91 µM [inhibitor, full curve, poor fit]"
15,COC(=O)c1ccccc1NC(=O)N1CCC[C@@H](O)[C@H](NC(=O)c2ccc(OCc3ccccc3)cc2)C1,inactive
16,O=C(c1nnc(COc2ccc(OC(F)(F)F)cc2)n1-c1ccccc1)N1CCC[C@@H]1C(c1ccccc1)c1ccccc1,"inconclusive: 39.8 µM [inhibitor, single point]"
17,Cc1ccc(S(=O)(=O)N2CCCc3cc(NS(=O)(=O)c4ccc(F)cc4)ccc32)cc1,"inconclusive: 35.5 µM [inhibitor, single point]"
18,O=C(O)c1ccc(-c2ccc(N3CCCCCC3)nc2)cc1,inactive
19,Cc1nn2c(c1-c1ccccc1-c1ccccc1)N(Cc1ccc(O)cc1)CCC2,"inconclusive: 3.98 µM [inhibitor, full curve, poor fit]"
20,Cc1ccsc1C(=O)N1CCC2(CC1)NC(=O)N(Cc1ccccc1)C2=O,inactive
21,COc1ccc(C(=O)N2c3nc(-c4ccco4)nn3C3(CCCCC3)[C@@H]3CCCC[C@@H]32)cc1OC,"inconclusive: 39.8 µM [inhibitor, single point]"

row,Structure (SMILES),Potency
1,COc1ccc(C2=N[C@H](c3ccc(Cl)cc3)[C@H](c3ccc(Cl)cc3)N2C(=O)N2CCNC(=O)C2)c(OC(C)C)c1,"inconclusive: 3.04 µM [inhibitor, partial curve]"
2,Cc1noc(C)c1[S+](=O)([O-])N1CCCC(c2nn(-c3ccccn3)c(=O)[nH]2)C1 (configuration not stated),inactive
3,FC(F)(F)c1ccc(CN2CCNc3cc(Nc4ccccc4)ncc3C2)cc1,"inconclusive: 12.6 µM [inhibitor, partial curve, poor fit]"
4,Cc1cnc(C(=O)O)c[n+]1[O-],"inconclusive: 3.41 µM [inhibitor, full curve, poor fit]"
5,COc1ccc(-c2cccc(COc3cnc4c(ccn4CC(=O)O)c3)c2)c(C)c1,inactive
6,CC(C)(C)CCN1CCC(F)(c2nc(-c3ccccc3)no2)CC1,"inconclusive: 7.94 µM [inhibitor, full curve]"
7,CC[C@H]1CN(C(=O)Nc2cccc(C(F)(F)F)c2)CC[C@H]1CC(=O)Nc1ccccc1,"inconclusive: 56.2 µM [inhibitor, single point]"
8,COc1ccc(-c2cnc3[nH]cc(CC(=O)Nc4cccnc4)c3c2)cc1,inactive
9,COc1ccc(CNC(=O)C2CCN(c3nccc(Nc4ccc(OC)cc4)n3)CC2)cc1,inactive
10,CCOc1ccc(CC(=O)NC2CCCN(c3cc(-c4ccc(F)cc4)[nH]n3)C2)cc1OCC (configuration not stated),inactive
11,CCOc1ccc(-c2nc(C3CC(=O)N(c4ccc(F)c(Cl)c4)C3)no2)cc1 (configuration not stated),"inconclusive: 1.78 µM [inhibitor, full curve, poor fit]"
12,COc1ccc(CC(=O)Nc2ccc3nc(Nc4cccc(Cl)c4)cc(C)c3c2)cc1,"inconclusive: 39.8 µM [inhibitor, single point]"
13,C#CCNC[C@@H]1C=C(C)[C@H](Cc2nnc(-c3ccccc3F)o2)C[C@H]1C(C)C,"inconclusive: 56.2 µM [inhibitor, single point]"
14,Cc1ccccc1C(=O)N1CC(c2nnc(-c3ccncc3)o2)C2(CCOCC2)C1 (configuration not stated),"inconclusive: 8.91 µM [inhibitor, single point]"
15,C=Cc1ccc(Cn2c(C(=O)O)c(CNCCc3ccccc3)c3ccc(C)cc32)cc1,"inconclusive: 39.8 µM [inhibitor, single point]"
16,COc1ccc(CNC(=O)C2CN(C)C(=O)N2)cc1 (configuration not stated),inactive
17,COc1cc(NC(=O)CN2C(=O)C(c3ccc(Cl)cc3)=NC23CCCCC3)cc(OC)c1,"inconclusive: 20 µM [inhibitor, single point]"
18,Cc1ccc(C2=CC(c3ccc(Cl)cc3)n3nc(-c4ccc(C)cc4)nc3N2)cc1 (configuration not stated),"inconclusive: 31.6 µM [inhibitor, single point]"
19,COc1ccccc1NC(=O)CSCc1cc(=O)c2cccc(Cl)c2[nH]1,"inconclusive: 3.98 µM [inhibitor, partial curve, poor fit]"
20,CN(Cc1ccccc1)C(=O)c1cccc2c1CCN2C(=O)Nc1ccccc1,"inconclusive: 25.1 µM [inhibitor, single point]"
